Measurements from PubChem BioAssay AID1346428 (National Center for Advancing Translational Sciences (NCATS), 2018).
Several values for one entry are separate records, joined by “and”; a condition that tells them apart may be missing. Equal values may be shown once. The whole screen tested about 48,000 compounds, of which about 1,200 (2.5%) were called active. Another 2% or so got no clear call; they are omitted.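 The calls were made as follows: active = activation of at least 60% and not above a set upper limit (about 1 call in 100 departs from these limits); inconclusive = activation of 40% to 60%, or above that upper limit; inactive = activation under 40%.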 The list shows a part of the results.

What follows are molecules tested against Probable G-protein coupled receptor 32 (Homo sapiens) (UniProt O75388) (assay: qHTS for Agonists of Human Resolvin D1 Receptor DRV1). Conditions: CHO-K1 GPR32 beta-arrestin PathHunter luminescence, 90 min; at 76.9 µM; active compounds read high; zero percent set by DMSO-only wells.
Summary of the method: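 PathHunter enzyme-fragment complementation, CHO-K1 GPR32 stable line; 2,500 cells/well, overnight attach; cpd 90 min 37 °C 5% CO2; detection reagent 1 h RT; chemiluminescence. DMSO = EC0.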

Chain of UniProt O75388 (O75388 whole entry, looked up, the tested form may be a part): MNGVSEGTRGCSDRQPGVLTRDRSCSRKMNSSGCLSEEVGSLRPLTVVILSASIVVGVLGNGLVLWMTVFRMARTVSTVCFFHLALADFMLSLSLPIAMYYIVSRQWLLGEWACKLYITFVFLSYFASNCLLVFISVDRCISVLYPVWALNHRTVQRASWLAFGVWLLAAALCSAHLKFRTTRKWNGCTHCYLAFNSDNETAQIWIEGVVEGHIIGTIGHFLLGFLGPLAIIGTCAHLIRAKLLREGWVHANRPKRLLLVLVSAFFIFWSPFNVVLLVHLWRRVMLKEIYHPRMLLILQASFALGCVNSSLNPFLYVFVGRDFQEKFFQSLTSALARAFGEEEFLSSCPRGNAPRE

SMILES	activation
CC(C)NC(C)Cc1ccc(I)cc1 (stereo not drawn)	inactive: -12.9%
COc1ccc(-c2nc(CN3C(=O)CN=C(c4ccccc4Cl)c4cc(Cl)ccc43)c(C)o2)cc1OC	inactive: -25.3%
COC(=O)N1CCN(C(=O)Cc2ccc(Cl)c(Cl)c2)C(CN2CCCC2)C1 (stereo not drawn)	inactive: -11.6%
O=C(Cn1cc(C(=O)c2ccccc2)c2ccccc21)Nc1ccc(Br)cc1	inactive: -11.2%
NCC(O)c1ccc(O)cc1 (stereo not drawn)	inactive: -4.03% and inactive: -9.96%
N#Cc1nn(-c2c(Cl)cc(C(F)(F)F)cc2Cl)c(N)c1S(=O)C(F)(F)F (stereo not drawn)	inactive: 8.96%
Nc1ccc(Cl)cc1C(=O)c1ccccc1F	inactive: 46.2%
N#Cc1ccccc1NC(=O)c1cccn(Cc2ccccc2)c1=O	inactive: -1.36%
NC(CCCCCP(=O)(O)O)C(=O)O (stereo not drawn)	inactive: -5.02%
ClCc1cccc(Cl)c1	inactive: 28.6%
CCOC(=O)c1ccc(NC(=O)c2cccn(Cc3ccccc3F)c2=O)cc1	inactive: 33.5%
CN1CCc2cccc(Cl)c2CC1	inactive: 2.25%
COc1c2c(cc3c1OCO3)CCN(C)C2	inactive: -6.42%
Nc1ccc(Cl)cc1	inactive: 20%
C=CCN1CC[C@]23CCCCC2[C@H]1Cc1ccc(O)cc13 (stereo partly drawn)	inactive: -11.3%
CCC(C(=O)Nc1ccccc1F)N1C(=O)CN=C(c2ccccc2)c2ccccc21 (stereo not drawn)	inactive: -105%
CN[C@@H](C)[C@H](O)c1ccccc1	inactive: 5.92%
CCc1ccc(-n2nc(C)c3c2NC(=O)CSC3c2ccc(OC)cc2OC)cc1 (stereo not drawn)	inactive: 1.01%
COc1ccc(Cl)cc1NC(=O)c1sc2nc3c(cc2c1N)N1CCC3CC1	inactive: 36.2%
CC12NC(Cc3ccccc31)c1ccccc12 (stereo not drawn)	inactive: -10.5%
COC(=O)[C@@H](N)CCCN/C(N)=N/[N+](=O)[O-]	inactive: 6.52%
COP(=O)(OC)C(O)C(Cl)(Cl)Cl (stereo not drawn)	inactive: 11.9%
CC(CC(C#N)(c1ccccc1)c1ccccc1)N(C)C (stereo not drawn)	inactive: 12.8%
Cc1ccc(-n2c(/C=C/c3ccccc3)nc3ccccc3c2=O)cc1Cl	inactive: -14.3%
C=CCN1CC[C@]23c4c5ccc(O)c4O[C@H]2C(=O)CC[C@@]3(O)[C@H]1C5	inactive: 21%

SMILES	activation
O=C1CC(c2ccccc2Br)c2c(c3ccccc3oc2=O)O1 (stereo not drawn)	inactive: 6.31%
OCCOc1ccccc1	inactive: 4.84%
Cn1cc(C2=C(c3cn(C4CCN(Cc5ccccn5)CC4)c4ccccc34)C(=O)NC2=O)c2ccccc21	inactive: -42.8%
NC(=O)c1cc(N2CC2)c([N+](=O)[O-])cc1[N+](=O)[O-]	inactive: 11.1%
Cn1c(=O)n(C)c2cc(CNCCc3ccccc3F)ccc21	inactive: -2.65%
O=c1n(Cl)c(=O)n(Cl)c(=O)n1Cl	inactive: -12.5%
C[C@@H]1O[C@H](C[N+](C)(C)C)C[C@H]1O	inactive: -9.97%
CP(=O)(O)C1=CCNCC1	inactive: -1.31%
NC(=O)CI	inactive: -9.83%
CN1CCC(O)(c2ccc(F)cc2)C(C(=O)c2ccc(F)cc2)C1 (stereo not drawn)	inactive: 28.3%
Oc1ccc2c3c1O[C@H]1[C@@H](O)C=C[C@H]4[C@@H](C2)NCC[C@@]341	inactive: 17.7%
CCNc1nc(Cl)nc(NCC)n1	inactive: -7.56%
Cc1cccc(C)c1NC(=O)CN1CCCC1=O	inactive: -1.09% and inactive: 4.98%
O=C(COc1ccccc1[N+](=O)[O-])N1CCN(CCc2ccncc2)CC1	inactive: 3.68%
COc1ccc2[nH]c3c(c2c1)CCNC3	inactive: -3.76%
C[C@@H]1CC2=CC(=O)CC[C@@H]2[C@H]2CC[C@@]3(C)[C@@H](CC[C@]3(C)O)[C@@H]21	inactive: 2.97%
Cc1cccc(C)c1OCC(=O)Nc1ccc(Cl)cc1C(=O)c1ccccc1	inactive: -31.6%
N#CC(C#N)=Cc1ccc(O)c(O)c1	inactive: 19.3% and inactive: -26.8%
COc1ccc(C)cc1NC(=O)c1cccn(Cc2ccccc2Cl)c1=O	inactive: 1.01%
Cc1ccc(-n2c(/C=C/c3cc(Br)cs3)nc3ccccc3c2=O)cc1C	inactive: -15.9%
CC(C)C(Br)C(=O)NC(N)=O (stereo not drawn)	inactive: -6.87%
COP(=O)(OC)OC=C(Cl)Cl	inactive: -3.91%
CCOc1ccc(-n2c(/C=C/c3ccccc3)nc3ccccc3c2=O)cc1	inactive: -1.6%
N#Cc1cc2c(nc1SCC(=O)Nc1cccc(F)c1)C1CCN2CC1	active: 67.7%
ClCCCN1CCN(c2cccc(Cl)c2)CC1	inactive: 10.6%

SMILES	activation
Cc1sc2ccccc2c1CC1=NCCN1	inactive: -3.14%
CSc1ccc(C(c2c(O)c3ccccc3oc2=O)c2c(C)n(C)n(-c3ccccc3)c2=O)cc1 (stereo not drawn)	inactive: -2.99%
CC(=O)[C@H]1CC[C@H]2[C@@H]3CC[C@H]4C[C@](C)(O)CC[C@]4(C)[C@H]3CC[C@]12C	inactive: -2.07% and inactive: -5.02%
CN1CCN(c2csc3ccc(F)cc3c2=O)CC1	inactive: -11.7%
CN(C)CCc1ccc(O)cc1	inactive: 1.8%
NC1=NC(=O)C(c2ccccc2)O1 (stereo not drawn)	inactive: 8.71%
CCOC(=O)C1(c2ccccc2)CCN(CCC(C#N)(c2ccccc2)c2ccccc2)CC1	inactive: -13.2%
N#Cc1cc([N+](=O)[O-])ccc1NC(=O)c1cccn(Cc2cccc(F)c2)c1=O	inactive: -5.89%
CCN(CC)C(=O)N[C@@H]1C=C2c3cccc4[nH]cc(c34)C[C@@H]2N(C)C1	active: 63.6%
COc1cc(CC(C)N)c(OC)cc1I (stereo not drawn)	inactive: 1.87%
O=C(CCl)c1ccc(Cl)cc1Cl	inactive: -56.2%
C#C[C@]1(O)CC[C@H]2[C@@H]3CCC4=CC(=O)CCC4=C3C=C[C@@]21CC	inactive: 0.696%
O=C(Nc1ccc2c(c1)OCCO2)c1cccn(Cc2cccc([N+](=O)[O-])c2)c1=O	inactive: -5.07%
CCC1(c2ccccc2)C(=O)N(COC)C(=O)N(COC)C1=O	inactive: 7.54%
N[C@@H]1C[C@H]1c1ccccc1	inactive: -17.4%
CC(C)NCC(O)c1ccc([N+](=O)[O-])cc1 (stereo not drawn)	inactive: 0.008%
Nc1c(C(=O)Nc2ccc(OC(F)(F)F)cc2)sc2nc3c(cc12)N1CCC3CC1	inactive: 2.25%
COc1cc(/C=C/c2nc3ccccc3c(=O)n2-c2ccc(Br)c(C)c2)ccc1O	inactive: -12.7%
COc1nn(CSP(=S)(OC)OC)c(=O)s1	inactive: -88.5%
CCCCc1nc2ccccc2c(=O)n1-c1cccc(OC)c1	inactive: -2.71%
CC(Cc1ccccc1)NCCn1cnc2c1c(=O)n(C)c(=O)n2C (stereo not drawn)	inactive: -29.9%
C=CC(=O)NCNC(=O)C=C	inactive: 20.6%
O=C(c1ccc2c(c1)N(Cc1ccc(F)cc1Cl)C(=O)c1ccccc1S2)N1CCC2(CC1)OCCO2	inactive: -29.1%
Cc1ccc(NC(=O)CN2C(=O)CN=C(c3ccccc3)c3ccccc32)c(C)c1	inactive: -46.3%
CCOP(=S)(OCC)O/N=C(\C#N)c1ccccc1	inactive: -68.1%

SMILES	activation
CC(=O)OC1(c2ccccc2)CCN(CCc2ccccc2)CC1	active: 85.1%
CCN(CC)CCc1c[nH]c2ccccc12	inactive: 6.59%
COC1CC(=C(c2cccs2)c2cccs2)C[N+](C)(C)C1 (stereo not drawn)	inactive: -10.8%
Cc1oc(-c2ccc(Cl)cc2)nc1CN1C(=O)CN=C(c2ccccc2)c2cc(Cl)ccc21	inactive: -2.39%
CN1CCN(C(=O)O[C@H]2c3nccnc3C(=O)N2c2ccc(Cl)cn2)CC1	inactive: 5.7%
NC(=O)c1cc([N+](=O)[O-])cc([N+](=O)[O-])c1	inactive: 16.1%
O=C1CC[C@@]2(O)[C@H]3Cc4ccc(O)c5c4[C@@]2(CCN3CC2CC2)[C@H]1O5	inactive: -4.94%
COc1ccc(-c2nn3c(=O)cc(CN4CCN(C(=O)COc5ccc(F)cc5)CC4)nc3s2)cc1	inactive: -2.47%
COc1ccccc1-n1c(/C=C/c2ccccc2)nc2ccccc2c1=O	inactive: -11.8%
Cn1c(CCCC(=O)O)nc2cc(N(CCCl)CCCl)ccc21	inactive: 31.8%
O=C1CN=C(c2ccccc2)c2cc(Cl)ccc2N1Cc1ccc(Cl)cc1	inactive: -13.4%
COc1ccc(-c2nc(CN3C(=O)CN=C(c4ccccc4)c4ccccc43)c(C)o2)cc1OC	inactive: -16.3%
NC(CP(=O)(O)O)C(=O)O (stereo not drawn)	inactive: 6.24%
CCc1ccc(OCC(=O)N2CCN(CCc3ccccn3)CC2)cc1	inactive: 20.9%
CN1CCc2cc(O)cc3c2[C@H]1Cc1ccc(O)c(O)c1-3	inactive: 17.4%
CC(NC(C)(C)C)C(=O)c1cccc(Cl)c1 (stereo not drawn)	inactive: -37.5% and inactive: -4.38%
CCOc1ccc2nc(NC(=O)c3cccn(Cc4ccccc4C)c3=O)sc2c1	inactive: 3.77%
CCC(=O)N1CC(=O)Nc2ccc(C)cc2C1c1ccc(F)cc1 (stereo not drawn)	inactive: 12.2%
Cc1cc(NC(=O)c2cccn(Cc3cccc([N+](=O)[O-])c3)c2=O)no1	inactive: -14.5%
C[C@H](N)Cc1cccc(C(F)(F)F)c1	inactive: 5.21%
NCc1cccnc1	inactive: 9.91%
CN(C)[C@@H]1C(=O)C(C(N)=O)=C(O)[C@@]2(O)C(=O)C3=C(O)c4c(O)cccc4[C@@](C)(O)[C@H]3C[C@@H]12	inactive: 5.97%
Cc1ccccc1Cn1cccc(C(=O)Nc2cc(Cl)ccc2C#N)c1=O	inactive: -1.86%
